Reference: ChEMBL document CHEMBL1156829
In all, about 5,400 compounds were measured (“IFI”: median about 2, highest 2% from about 22 on). This is one part of the list.

Assay: NOVARTIS: Inhibition Frequency Index (IFI) - the number of HTS assays where a compound showed > 50% inhibition/induction, expressed as a percentage of the number of assays in which the compound was tested.
Format: functional

Row | SMILES | IFI
1 | Cc1ccc(Cl)cc1-n1c(SCc2ccccc2)nnc1C(Cc1ccccc1)NC(=O)C12CC3CC(CC(C3)C1)C2 (centres undefined) | 4.54%
2 | CSc1cccc(NC(=O)C2C3C=CC4(O3)C2C(=O)N(C2CC2)C4C(=O)NC2CCCCC2)c1 (centres undefined) | 0%
3 | Cn1nccc1C(OCC(=O)N1CCOCC1)c1ccc(F)cc1 (centres undefined) | 1.96%
4 | COC(=O)c1c(NC(=O)c2cc3ccccc3oc2=O)sc2c1CCC(C)C2 (centres undefined) | 0%
5 | CC(C)CN1C(=O)N(CCCc2cccnc2)C(=O)C12CCN(C1CCOCC1)CC2 | 6.33%
6 | O=C(CSc1nccn1C1CCCC1)Nc1cc(C(F)(F)F)ccc1Cl | 0%
7 | CCOC(=O)C1=C(C)NC2=C(C(=O)CC(C)(C)C2)C1c1ccccn1 (centres undefined) | 2.3%
8 | CC(C)(C)NS(=O)(=O)c1cc(Cl)ccc1Cl | 0%
9 | COc1ccc(-c2csc(Nc3cccc(Cl)c3C)n2)cc1OC | 0%
10 | N#C/C(=C\c1cc2ccccc2nc1Cl)c1nc(-c2ccc(Cl)c(Cl)c2)cs1 | 0%
11 | Cn1c2ccncc2c2cc([N+](=O)[O-])ccc21 | 7.69%
12 | Cc1ccc(S(=O)(=O)Oc2ccc(C=NN=C(N)N)cc2)cc1 | 0%
13 | COCCNC(=O)[C@@H]1C[C@@H](NCCC2=C(C)CCCC2(C)C)CN1C(C)C | 1.92%
14 | N#CCSc1nc2ccccc2c2nc(CCc3c[nH]c4ccccc34)nn12 | 0%
15 | N#C/C(=C\n1cc(Cc2ccc(Cl)cc2Cl)c2ccccc21)c1nn(CCO)c(N)c1C#N | 0%
16 | CC(=O)Nc1ccc(S(=O)(=O)Nc2ccccc2[N+](=O)[O-])cc1 | 0%
17 | COc1ccc(-c2cc(C(F)(F)F)n3nc(C(=O)NC4CCCCC4)c(Cl)c3n2)cc1OC | 1.22%
18 | Cc1ccc(N=C2NC(=O)/C(=C\c3ccc(N(C)C)cc3)S2)cc1 | 0%
19 | CSc1nccc(-c2cc(F)cc3c2OC(CNC(=O)C2CC(=O)c4ccccc42)C3)n1 (centres undefined) | 0%
20 | Cc1ccc2c(c1)N=C(c1ccc([N+](=O)[O-])cc1)CO2 | 5.17%
21 | COC(=O)c1sccc1S(=O)(=O)N1CCCC(c2[nH]ncc2-c2ccccc2)C1 (centres undefined) | 3%
22 | COC(=O)C1N(C(=O)OC)c2ccc([N+](=O)[O-])cc2S1(=O)=O (centres undefined) | 0%

Row | SMILES | IFI
23 | Oc1c(C(Nc2ccccn2)c2cccc(Cl)c2Cl)ccc2cccnc12 (centres undefined) | 15.4%
24 | O=C(NCc1ccco1)c1ccc(OC2CCN(CC3CCCCC3)CC2)c(Cl)c1 | 1.39%
25 | CC(=NNC(=S)N(C)C)c1ccccn1 | 19.8%
26 | O=C(NN=CC1CC=CCC1)c1ccc([N+](=O)[O-])cc1Cl (centres undefined) | 0%
27 | O=c1c2sccc2nc(SCc2cccc([N+](=O)[O-])c2)n1-c1ccc(Br)cc1 | 0%
28 | COc1cccc(-c2ccc(O)c(CNCC3CCCCC3)c2)n1 | 1.98%
29 | CCc1ccc(N(C(=O)CCN2CCc3ccccc32)C(C(=O)NCc2ccccc2)c2ccc(OC)c(OC)c2)cc1 (centres undefined) | 3.33%
30 | COc1ccc(/C=C2\N=C(c3ccc(Cl)cc3)N(c3cc(Cl)ccc3C)C2=O)cc1OC | 0%
31 | CCCCOc1ccc(NC2=NC3(CCCC3)NC(N)=N2)cc1 | 0%
32 | Oc1ccc(C(CCNCCc2c[nH]c3ccccc23)c2ccccc2)cc1 (centres undefined) | 7.69%
33 | C[n+]1cccc(CNC2=C(Cl)C(=O)c3ccccc3C2=O)c1 | 0%
34 | COc1ccccc1CNC(=O)c1nn(-c2ccc(Cl)cc2)c(=O)c2ccccc12 | 2.38%
35 | Cn1cc(S(=O)(=O)c2cccc(Cl)c2)c(=O)c2cc(F)c(N3CCCCC3)cc21 | 0%
36 | CCOC(=O)C1=C(C)N=c2sc(=Cc3ccccc3OCc3ccccc3)c(=O)n2C1c1ccccc1OC(C)C (centres undefined) | 0%
37 | CCCCCC1CCCc2c1[nH]c1cc(Cl)ccc1c2=O (centres undefined) | 0%
38 | CC(CNC(=O)c1ccccc1)C(=O)OCC(=O)[C@@]12OC(C)(C)O[C@@H]1CC1C3CCC4=CC(=O)C=C[C@]4(C)[C@@]3(F)[C@@H](O)C[C@@]12C (some centres undefined) | 13.8%
39 | O=C(Nc1ccc(O)cc1)c1cccc(S(=O)(=O)N2CCCCC2)c1 | 0%
40 | CC(=O)Nc1c(C)cc(Cl)cc1Cl | 3.23%
41 | O=C(O)CC12CC3CC(C1)CC(c1ccc([N+](=O)[O-])cc1)(C3)C2 | 0%
42 | CCCCCN(C(=O)c1cccc(F)c1)C(CC)c1nc2ccccc2c(=O)n1-c1ccc(Cl)cc1C (centres undefined) | 1.91%
43 | COc1ccc(-n2cc(-c3ccccc3)[n+]3c2SCC3)cc1 | 0%
44 | CCc1ccc2[nH]c(=O)c(CN(CCN(C)C)C(=S)NCCCN(C)C)cc2c1 | 3.7%

Row | SMILES | IFI
45 | Cc1ccc2c(C)nc(NC(=N)N)nc2c1 | 2.94%
46 | c1cc2c(cc1Nc1c3c(nc4nncn14)CCC3)OCCO2 | 0%
47 | CC1=NN(c2ccccc2)C(=O)C1=NNc1c(Br)cc(Br)cc1Br | 0%
48 | COc1cc(C(C(=O)NCc2ccccc2)N(C(=O)c2snc(C(N)=O)c2N)c2ccc(C(C)C)cc2)cc(OC)c1OC (centres undefined) | 5.46%
49 | COc1ccc(C(=NO)C2CC2c2ccc(Cl)cc2)cc1 (centres undefined) | 1.35%
50 | CN(CCCNc1ccnc2cc(Cl)ccc12)C(=O)C1CC1 | 2.78%
51 | OCc1nc2ccccc2n1Cc1ccccc1F | 1.59%
52 | Cc1ccc(-c2c[n+](Cc3cccc(C)c3)c3n2CCC3)cc1 | 7.32%
53 | O=C1C=CC(=O)N1c1ccc(Sc2ccc(N3C(=O)C=CC3=O)cc2)cc1 | 12.8%
54 | O=C(/C=C/c1ccccn1)NCC1Cc2cc(-c3cnccn3)ccc2O1 (centres undefined) | 0%
55 | O=C(Cn1cc([N+](=O)[O-])nc1[N+](=O)[O-])N1CCN(c2ccc(F)cc2)CC1 | 4.25%
56 | CCCCCCCCCn1c2c(c(=N)c3c1CCC3)CCCC2 | 21.3%
57 | COc1ccc(Cn2c(C)nc3cc(NC(=O)Nc4ccccc4)c(C)nc32)cc1 | 0%
58 | O=C(Nc1ccccc1[N+](=O)[O-])C1CC1(c1ccccc1)c1ccccc1 (centres undefined) | 0%
59 | Cc1nn(C(=O)NS(=O)(=O)c2ccccc2Cl)c(C)c1C | 0%
60 | O=C(/C=C/c1cccnc1)C12CC3CC(CC(C3)C1)C2 | 0%
61 | CCOC(=O)C1CCCN(C(=O)c2c(C)oc3c2C(=O)c2ccccc2C3=O)C1 (centres undefined) | 6.25%
62 | COc1ccc2c(c1)C(C)=CC(C)(C)N2C(=O)CSc1nnc(-c2ccc(C)cc2)o1 | 0%
63 | O=C(NCc1ccccc1)NC1CC2CCCC(C1)N2Cc1ccccc1 (centres undefined) | 3.95%
64 | O=c1c(NCc2ccco2)nc2cc(Cl)ccc2n1CCNc1ncc(C(F)(F)F)cc1Cl | 2.47%
